The values below come from the supplement of paper PMC4604168 (melanoma cell lines).

The list shows a part of the results. Many values rest on one well or one pass, so single values are uncertain.
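Also: cells treated in 1,536-well plates, then fixed and DAPI-stained, with nuclei counted from automated high-throughput microscope images.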

In this assay the test system is A101D. Briefly: cell count relative to DMSO control; melanoma cells; higher = more viable cells. The settings on record: library dose: standard library concentration; 72 h.
`Nc1ncn([C@H]2C[C@H](O)[C@@H](CO)O2)c(=O)n1` [decitabine] + Cc1nc(Nc2ncc(C(=O)Nc3c(C)cccc3Cl)s2)cc(N2CCN(CCO)CC2)n1 [dasatanib] (first compound 0.5 µM, partner dose 0.02 µM): the cell count is 67.7%. The same measure for `CC(=O)O[C@@]12CO[C@@H]1C[C@H](O)[C@@]1(C)C(=O)[C@H](O)C3=C(C)[C@@H](OC(=O)[C@H](O)[C@@H](NC(=O)OC(C)(C)C)c4ccccc4)C[C@@](O)([C@@H](OC(=O)c4ccccc4)[C@H]21)C3(C)C` [Docetaxel] + Nc1ncn([C@H]2C[C@H](O)[C@@H](CO)O2)c(=O)n1 [decitabine] (first compound 0.0005 µM, partner dose 0.5 µM): 55.7%; for `Nc1ncn([C@H]2C[C@H](O)[C@@H](CO)O2)c(=O)n1` [decitabine] + Cc1cc(N2CCOCC2)cc2[nH]c(-c3c(NC[C@@H](O)c4cccc(Cl)c4)cc[nH]c3=O)nc12 [BMS536924] (first compound 0.5 µM, partner dose 1 µM): 95.8%; for `Nc1ncn([C@H]2C[C@H](O)[C@@H](CO)O2)c(=O)n1` [decitabine] + Cn1c(Nc2ccc(C(F)(F)F)cc2)nc2cc(Oc3ccnc(-c4ncc(C(F)(F)F)[nH]4)c3)ccc21 [CHIR265] (first compound 0.5 µM, partner dose 0.4 µM): 57.4%. With `CC(=O)O[C@@]12CO[C@@H]1C[C@H](O)[C@@]1(C)C(=O)[C@H](O)C3=C(C)[C@@H](OC(=O)[C@H](O)[C@@H](NC(=O)OC(C)(C)C)c4ccccc4)C[C@@](O)([C@@H](OC(=O)c4ccccc4)[C@H]21)C3(C)C` [Docetaxel] + C[C@]1(c2nc3c(C(N)=O)cccc3[nH]2)CCCN1 [Veliparib] (first compound 0.0005 µM, partner dose 7 µM) the figure was 42.1%; with `Nc1nc(F)nc2c1ncn2[C@@H]1O[C@H](CO)[C@@H](O)[C@@H]1O` [fludarabine] + Nc1cccc2c1CN(C1CCC(=O)NC1=O)C2=O [lenalidomide] (first compound 1 µM, partner dose 5 µM), 87.6%. Regarding `CC(=O)O[C@@]12CO[C@@H]1C[C@H](O)[C@@]1(C)C(=O)[C@H](O)C3=C(C)[C@@H](OC(=O)[C@H](O)[C@@H](NC(=O)OC(C)(C)C)c4ccccc4)C[C@@](O)([C@@H](OC(=O)c4ccccc4)[C@H]21)C3(C)C` [Docetaxel] + C=C(c1ccc(C(=O)O)cc1)c1cc2c(cc1C)C(C)(C)CCC2(C)C [Bexarotene] (first compound 0.0005 µM, partner dose 10 µM), the cell count turned out to be 57.3%. In the case of `Nc1ccn([C@@H]2O[C@H](CO)[C@@H](O)C2(F)F)c(=O)n1` [gemcitabine] + Cc1ccc(NC(=O)c2cccc(N(C)C)c2)cc1NC(=O)c1ccc(O)cc1 [ZM336372] (first compound 0.002 µM, partner dose 10 µM), the cell count came to 66.7%. The same measure for `Nc1ccn([C@@H]2O[C@H](CO)[C@@H](O)C2(F)F)c(=O)n1` [gemcitabine] + Clc1ccc(Nc2nnc(Cc3ccncc3)c3ccccc23)cc1 [vatalanib] (first compound 0.002 µM, partner dose 10 µM): 69.1%; for `CC(=O)O[C@@]12CO[C@@H]1C[C@H](O)[C@@]1(C)C(=O)[C@H](O)C3=C(C)[C@@H](OC(=O)[C@H](O)[C@@H](NC(=O)OC(C)(C)C)c4ccccc4)C[C@@](O)([C@@H](OC(=O)c4ccccc4)[C@H]21)C3(C)C` [Docetaxel] + COc1ccc(Cl)c(Nc2nc3ccccc3nc2NS(=O)(=O)c2cccc(NC(=O)C(C)(C)N)c2)c1 [XL147] (first compound 0.0005 µM, partner dose 4 µM): 52.3%. The compound `CO[C@H]1C[C@@H]2CC[C@@H](C)[C@@](O)(O2)C(=O)C(=O)N2CCCC[C@H]2C(=O)O[C@H]([C@H](C)C[C@@H]2CC[C@@H](OCCO)[C@H](OC)C2)CC(=O)[C@H](C)/C=C(\C)[C@@H](O)[C@@H](OC)C(=O)[C@H](C)C[C@H](C)/C=C/C=C/C=C/1C` [everolimus] + CCc1ccc(CCOc2ccc(CC3SC(=O)NC3=O)cc2)nc1 [pioglitazone] (first compound 0.1 µM, partner dose 10 µM) showed a cell count of 101%.

`CC(=O)c1c(C)c2cnc(Nc3ccc(N4CCNCC4)cn3)nc2n(C2CCCC2)c1=O` [palbociclib] + Cc1nc(Nc2ncc(C(=O)Nc3c(C)cccc3Cl)s2)cc(N2CCN(CCO)CC2)n1 [dasatanib] (first compound 0.2 µM, partner dose 0.02 µM): the cell count is 55.2%. `Nc1ccn([C@@H]2O[C@H](CO)[C@@H](O)C2(F)F)c(=O)n1` [gemcitabine] + Cc1nc(Nc2ncc(C(=O)Nc3c(C)cccc3Cl)s2)cc(N2CCN(CCO)CC2)n1 [dasatanib] (first compound 0.002 µM, partner dose 0.02 µM) returned a cell count of 65.2%.

`CO[C@H]1C[C@@H]2CC[C@@H](C)[C@@](O)(O2)C(=O)C(=O)N2CCCC[C@H]2C(=O)O[C@H]([C@H](C)C[C@@H]2CC[C@@H](OCCO)[C@H](OC)C2)CC(=O)[C@H](C)/C=C(\C)[C@@H](O)[C@@H](OC)C(=O)[C@H](C)C[C@H](C)/C=C/C=C/C=C/1C` [everolimus] + Cn1cncc1[C@@](N)(c1ccc(Cl)cc1)c1ccc2c(c1)c(-c1cccc(Cl)c1)cc(=O)n2C [tipifarnib] (first compound 0.1 µM, partner dose 0.05 µM) came in with a cell count of 81.2%. With `CC(=O)c1c(C)c2cnc(Nc3ccc(N4CCNCC4)cn3)nc2n(C2CCCC2)c1=O` [palbociclib] + NCC(=O)Nc1ccc(-n2nc(C(F)(F)F)cc2-c2ccc3c(ccc4ccccc43)c2)cc1 [OSU03012] (first compound 0.2 µM, partner dose 5 µM), the cell count came out at 28.8%. The compound `Nc1ccn([C@@H]2O[C@H](CO)[C@@H](O)C2(F)F)c(=O)n1` [gemcitabine] + C[C@]1(c2nc3c(C(N)=O)cccc3[nH]2)CCCN1 [Veliparib] (first compound 0.002 µM, partner dose 7 µM) gave a cell count of 86.9%. The compound `Nc1ccn([C@@H]2O[C@H](CO)[C@@H](O)C2(F)F)c(=O)n1` [gemcitabine] + COCC[n+]1c2c(n(Cc3cnccn3)c1C)C(=O)c1ccccc1C2=O [YM155] (first compound 0.002 µM, partner dose 0.002 µM) yielded a cell count of 62.3%. The same measure for `Nc1nc(F)nc2c1ncn2[C@@H]1O[C@H](CO)[C@@H](O)[C@@H]1O` [fludarabine] + Cn1c(Nc2ccc(C(F)(F)F)cc2)nc2cc(Oc3ccnc(-c4ncc(C(F)(F)F)[nH]4)c3)ccc21 [CHIR265] (first compound 1 µM, partner dose 0.4 µM): 54.6%; for `Nc1nc(F)nc2c1ncn2[C@@H]1O[C@H](CO)[C@@H](O)[C@@H]1O` [fludarabine] + O=C(Nc1cccc(Cl)c1)Nc1ncc(CCNc2ncnc3ccsc23)s1 [SNS314] (first compound 1 µM, partner dose 0.004 µM): 83.4%. Compound `CC(=O)c1c(C)c2cnc(Nc3ccc(N4CCNCC4)cn3)nc2n(C2CCCC2)c1=O` [palbociclib] + COCC[n+]1c2c(n(Cc3cnccn3)c1C)C(=O)c1ccccc1C2=O [YM155] (first compound 0.2 µM, partner dose 0.002 µM) came in with a cell count of 60.1%. The same measure for `Nc1nc(F)nc2c1ncn2[C@@H]1O[C@H](CO)[C@@H](O)[C@@H]1O` [fludarabine] + Cn1nnc2c(C(N)=O)ncn2c1=O [temozolomide] (first compound 1 µM, partner dose 10 µM): 73.9%. The same measure for `CC(=O)c1c(C)c2cnc(Nc3ccc(N4CCNCC4)cn3)nc2n(C2CCCC2)c1=O` [palbociclib] + Cc1ccc(NC(=O)c2cccc(N(C)C)c2)cc1NC(=O)c1ccc(O)cc1 [ZM336372] (first compound 0.2 µM, partner dose 10 µM): 57.8%. The same measure for `Nc1ncn([C@H]2C[C@H](O)[C@@H](CO)O2)c(=O)n1` [decitabine] + C[C@@H]1CCN(C(=O)CC#N)C[C@@H]1N(C)c1ncnc2[nH]ccc12 [CP690550] (first compound 0.5 µM, partner dose 5 µM): 81.9%; for `Nc1ncn([C@H]2C[C@H](O)[C@@H](CO)O2)c(=O)n1` [decitabine] + Clc1ccc(Nc2nnc(Cc3ccncc3)c3ccccc23)cc1 [vatalanib] (first compound 0.5 µM, partner dose 10 µM): 66.6%; for `Nc1nc(F)nc2c1ncn2[C@@H]1O[C@H](CO)[C@@H](O)[C@@H]1O` [fludarabine] + Nc1ncn([C@H]2C[C@H](O)[C@@H](CO)O2)c(=O)n1 [decitabine] (first compound 1 µM, partner dose 0.5 µM): 89%.

`Nc1nc(F)nc2c1ncn2[C@@H]1O[C@H](CO)[C@@H](O)[C@@H]1O` [fludarabine] + CN(C)S(=O)(=O)c1ccc2c(c1)/C(=C/c1cc3c([nH]1)CCCC3)C(=O)N2 [SU6656] (first compound 1 µM, partner dose 2 µM) yielded a cell count of 79.6%. The same measure for `CC(=O)c1c(C)c2cnc(Nc3ccc(N4CCNCC4)cn3)nc2n(C2CCCC2)c1=O` [palbociclib] + C#Cc1cccc(Nc2ncnc3cc(OCCOC)c(OCCOC)cc23)c1 [erlotinib] (first compound 0.2 µM, partner dose 4 µM): 59.5%.
